Among the data in the supplement of paper PMC4604168 (melanoma cell lines) are cell count values, retold here.

This is one part of the list. Most values come without repeats; read them as rough.
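Note: cells treated in 1,536-well plates, then fixed and DAPI-stained, with nuclei counted from automated high-throughput microscope images.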

The test has as its system A101D. Description: cell count relative to DMSO control; melanoma cells; higher = more viable cells. Conditions: library dose: standard library concentration; 72 h.
Turning to `CN(c1ncccc1CNc1nc(Nc2ccc3c(c2)CC(=O)N3)ncc1C(F)(F)F)S(C)(=O)=O` + O=C1NC(=O)/C(=C/c2ccc(-c3ccc(F)cc3O)o2)S1 [AS252424] (first compound 0.4 µM, partner dose 5 µM), the cell count is 89.9%.
With `C=C(c1ccc(C(=O)O)cc1)c1cc2c(cc1C)C(C)(C)CCC2(C)C` [Bexarotene] + CCN(CC)CCCCNc1ncc2cc(-c3cc(OC)cc(OC)c3)c(NC(=O)NC(C)(C)C)nc2n1 [PD173074] (first compound 10 µM, partner dose 0.5 µM) the figure was 103%; with `NC1(c2ccc(-c3nc4ccn5c(=O)[nH]nc5c4cc3-c3ccccc3)cc2)CCC1` + CC(C)CCN1c2nc(Nc3cc(F)c(O)c(F)c3)ncc2N(C)C(=O)C1C [BID1870] (first compound 2 µM, partner dose 1 µM), 57.6%; with `C=C(c1ccc(C(=O)O)cc1)c1cc2c(cc1C)C(C)(C)CCC2(C)C` [Bexarotene] + Cn1c(Nc2ccc(C(F)(F)F)cc2)nc2cc(Oc3ccnc(-c4ncc(C(F)(F)F)[nH]4)c3)ccc21 [CHIR265] (first compound 10 µM, partner dose 0.4 µM), 54.9%.
The same measure for `C=C(c1ccc(C(=O)O)cc1)c1cc2c(cc1C)C(C)(C)CCC2(C)C` [Bexarotene] + O=S(=O)(c1ccccc1)N(CC(F)(F)F)c1ccc(C(O)(C(F)(F)F)C(F)(F)F)cc1 [T0901317] (first compound 10 µM, partner dose 7 µM): 75.5%; for `CS(=O)(=O)c1ccc(C(=O)Nc2ccc(Cl)c(-c3ccccn3)c2)c(Cl)c1` [vismodegib] + O=C(Nc1ccccc1)c1cc([N+](=O)[O-])ccc1Cl [GW9662] (first compound 5 µM, partner dose 10 µM): 90.5%; for `C=C(c1ccc(C(=O)O)cc1)c1cc2c(cc1C)C(C)(C)CCC2(C)C` [Bexarotene] + CC(C)(C)c1cnc(CSc2cnc(NC(=O)C3CCNCC3)s2)o1 [SNS-032] (first compound 10 µM, partner dose 0.05 µM): 93.2%.
In turn, `C=C(c1ccc(C(=O)O)cc1)c1cc2c(cc1C)C(C)(C)CCC2(C)C` [Bexarotene] + CC(C)CCN1c2nc(Nc3cc(F)c(O)c(F)c3)ncc2N(C)C(=O)C1C [BID1870] (first compound 10 µM, partner dose 1 µM) returned a cell count of 59%.
With `NC1(c2ccc(-c3nc4ccn5c(=O)[nH]nc5c4cc3-c3ccccc3)cc2)CCC1` + COc1ccc(COc2ccc(Cc3cnc(N)nc3N)cc2OC)cc1 [GW2580] (first compound 2 µM, partner dose 5 µM) the figure was 74.6%; with `CS(=O)(=O)c1ccc(C(=O)Nc2ccc(Cl)c(-c3ccccn3)c2)c(Cl)c1` [vismodegib] + O=C(O)[C@@H]1[O][Sb](=[O])([O][Sb]2(=[O])[O][C@H]([C@H](O)CO)[C@H](O)[C@H](C(=O)O)[O]2)[O][C@H]([C@H](O)CO)[C@@H]1O [stibogluconate] (first compound 5 µM, partner dose 10 µM), 106%.
The same measure for `CS(=O)(=O)c1ccc(C(=O)Nc2ccc(Cl)c(-c3ccccn3)c2)c(Cl)c1` [vismodegib] + Oc1nc(-c2ccc(C(F)(F)F)cc2)nc2c1CSCC2 [XAV939] (first compound 5 µM, partner dose 10 µM): 97.6%.
With `CCCS(=O)(=O)Nc1ccc(F)c(C(=O)c2c[nH]c3ncc(Cl)cc23)c1F` + CC(C)(C)c1cnc(CSc2cnc(NC(=O)C3CCNCC3)s2)o1 [SNS-032] (first compound 0.4 µM, partner dose 0.05 µM) the figure was 53.9%; with `CN(c1ncccc1CNc1nc(Nc2ccc3c(c2)CC(=O)N3)ncc1C(F)(F)F)S(C)(=O)=O` + Cn1c(=O)n(-c2ccc(C(C)(C)C#N)cc2)c2c3cc(-c4cnc5ccccc5c4)ccc3ncc21 [NVP-BEZ235] (first compound 0.4 µM, partner dose 0.02 µM), 58.4%.
As for `NC1(c2ccc(-c3nc4ccn5c(=O)[nH]nc5c4cc3-c3ccccc3)cc2)CCC1` + NC(=O)Nc1cc(-c2cccc(F)c2)sc1C(=O)N[C@H]1CCCNC1 [AZD7762] (first compound 2 µM, partner dose 0.1 µM), the cell count came to 67.1%.
